Test results from paper PMC5986797, “Laminin heparin-binding peptides bind to several growth factors and enhance diabetic wound healing” (Nature Communications, 2018).

Key:
Assay in all cases: ELISA; plates coated with 50 nM GF or chemokine in PBS; 10 nM laminin isoform in PBS added; bound laminin detected with anti-LAMC1 or anti-LAMA3 polyclonal antibody; A450 signals greater than 0.1 taken as binding; BSA-coated wells as control
Settings in all cases: both partners purified
[1] = molecular target: T1, recombinant human laminin-111 (human, UniProt P25391 18-3075; P07942 22-1786; P11047 34-1609)
T1 construct: laminin subunit alpha-1, human; chain told by the isoform's name; laminin subunit beta-1, human; laminin subunit gamma-1, human; source: bought: BioLamina (recombinant human, >95% purity); copies: + +

[2] = molecular target: T2, recombinant human laminin-211 (human, UniProt P24043 23-3122; P07942 22-1786; P11047 34-1609)
T2 construct: laminin subunit alpha-2, human; chain told by the isoform's name; laminin subunit beta-1, human; laminin subunit gamma-1, human; source: bought: BioLamina (recombinant human, >95% purity); copies: + +

[3] = molecular target: T3, recombinant human laminin-511 (human, UniProt O15230 36-3695; P07942 22-1786; P11047 34-1609)
T3 construct: laminin subunit alpha-5, human; chain told by the isoform's name; laminin subunit beta-1, human; laminin subunit gamma-1, human; source: bought: BioLamina (recombinant human, >95% purity); copies: + +

[4] = molecular target: T4, recombinant human laminin-521 (human, UniProt O15230 36-3695; P55268 33-1798; P11047 34-1609)
T4 construct: laminin subunit alpha-5, human; chain told by the isoform's name; laminin subunit beta-2, human; laminin subunit gamma-1, human; also called laminin isoform-521; source: bought: BioLamina (recombinant human, >95% purity); copies: + +

Measured: binding result

B1: C–X–C motif ligand (CXCL)-12γ (ligand)
chain: not shown
notes: C-X-C motif chemokine 12 (SDF-1), gamma form, bought in its mature form; source: bought: R&D systems
binds: [1] | [2] | [3] | [4]
